Test results as given in the supplement of paper PMC4604168 (melanoma cell lines).
The other results are listed elsewhere or left out. Many values rest on one well or one pass, so single values are uncertain.

Tests used:
Experiment in all cases: cell count relative to DMSO control; melanoma cells; higher = more viable cells
Details in all cases: library dose: standard library concentration; 72 h
G361 = test system: G361
IPC-298 = test system: IPC-298
IST-MEL1 = test system: IST-MEL1
LB2518-MEL = test system: LB2518-MEL
LOXIMVI = test system: LOXIMVI
MEL-HO = test system: MEL-HO
MZ2-MEL = test system: MZ2-MEL
MeWo = test system: MeWo
RPMI7951 = test system: RPMI7951
RVH-421 = test system: RVH-421
SkMel28 = test system: SkMel28
SkMel2 = test system: SkMel2
SkMel30 = test system: SkMel30
SkMel5 = test system: SkMel5
UACC257 = test system: UACC257
UACC62 = test system: UACC62
WM115 = test system: WM115
WM1716 = test system: WM1716
WM3526 = test system: WM3526
WM1745 = test system: WM1745
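Note: cells treated in 1,536-well plates, then fixed and DAPI-stained, with nuclei counted from automated high-throughput microscope images.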

Structure (SMILES) | cell count (G361) [%] | cell count (IPC-298) [%] | cell count (IST-MEL1) [%] | cell count (LB2518-MEL) [%] | cell count (LOXIMVI) [%] | cell count (MEL-HO) [%] | cell count (MZ2-MEL) [%] | cell count (MeWo) [%] | cell count (RPMI7951) [%] | cell count (RVH-421) [%] | cell count (SkMel28) [%] | cell count (SkMel2) [%] | cell count (SkMel30) [%] | cell count (SkMel5) [%] | cell count (UACC257) [%] | cell count (UACC62) [%] | cell count (WM115) [%] | cell count (WM1716) [%] | cell count (WM3526) [%] | cell count (WM1745) [%]
NC(=O)c1ccc(N(C(N)=O)c2c(F)cccc2F)nc1-c1ccc(F)cc1F + COc1ccc(-c2ccc3c(N4CCOCC4)nc(N4C[C@@H](C)O[C@@H](C)C4)nc3n2)cc1CO [KU0063794] (first compound 2 µM, partner dose 0.1 µM) | 84.4 | 81 | 96.7 | 95.5 | 121 | 78.3 | 79.6 | 91.3 | 72.7 | 81.3 | 76.9 | 95.2 | 92.3 | 75.4 | 88.5 | 83.5 | 86.5 | 94 | 79.2 | 
NC(=O)c1ccc(N(C(N)=O)c2c(F)cccc2F)nc1-c1ccc(F)cc1F + N#Cc1c(O)c2c(-c3ccc(-c4ccccc4O)cc3)csc2[nH]c1=O [A769662] (first compound 2 µM, partner dose 10 µM) | 108 | 102 | 98.8 | 111 | 125 | 95.9 | 105 | 86.4 | 99.4 | 92.3 | 87.2 | 105 | 105 | 66.3 | 103 | 73.4 | 94.9 | 113 | 112 | 
CCCCCCCCc1ccc(CCC(N)(CO)CO)cc1 [fingolimod] + Cc1cc([N+](=O)[O-])ccc1NS(=O)(=O)c1cc(Cl)ccc1Cl [FH535] (first compound 10 µM, partner dose 5 µM) | 32.3 | 49.1 | 17.6 | 22.8 | 48.7 | 26.2 | 45.4 | 37.1 | 25.8 | 45.7 | 4.97 | 24.1 | 11.4 | 63.4 | 40.6 | 32.3 | 40 | 45.2 | 37.9 | 
CCCCCCCCc1ccc(CCC(N)(CO)CO)cc1 [fingolimod] + O=C(Nc1ccccc1)c1cc([N+](=O)[O-])ccc1Cl [GW9662] (first compound 10 µM, partner dose 10 µM) | 0.176 | 46.7 | 9.08 | 0.394 | 16.6 | 37.9 | 1.8 | 5.59 | 3.08 | 28.3 | 1.68 | 0.173 | 7.17 | 41.5 | 64 | 19.9 | 18.5 | 21.3 | 23 | 
CCCCCCCCc1ccc(CCC(N)(CO)CO)cc1 [fingolimod] + Oc1nc(-c2ccc(C(F)(F)F)cc2)nc2c1CSCC2 [XAV939] (first compound 10 µM, partner dose 10 µM) | 73.8 | 76.7 | 81.9 | 72.7 | 84.5 | 85.1 | 64.1 | 81.7 | 52.2 | 243 | 33.5 | 78.5 | 104 | 62.4 | 81.1 | 41.9 | 67.2 | 37.2 | 81.5 | 
CCCCCCCCc1ccc(CCC(N)(CO)CO)cc1 [fingolimod] + COc1ccc2c(c1)CCC1C2CCC2(C)C(NCCCCCCN3C(=O)C=CC3=O)CCC12 [U73122] (first compound 10 µM, partner dose 2 µM) | 3.66 | 71.3 | 20.3 | 49.8 | 36.8 | 11.6 | 76.7 | 17.2 | 6.47 | 61.6 | 1.21 | 49.3 | 14.9 | 49.3 | 61.8 | 21.3 | 28.3 | 47.3 | 30.6 | 
CCCCCCCCc1ccc(CCC(N)(CO)CO)cc1 [fingolimod] + c1cc(-c2cnn3cc(-c4ccc(OCCN5CCCCC5)cc4)cnc23)ccn1 [Dorsomorphin] (first compound 10 µM, partner dose 2 µM) | 0.827 | 55.9 | 16.7 | 0.686 | 37.3 | 5.73 | 33 | 28.4 | 9.05 | 14.5 | 1.2 | 0.394 | 37.5 | 29.7 | 75.3 | 10.8 | 20.6 | 43.3 | 53.9 | 
NC(=O)c1ccc(N(C(N)=O)c2c(F)cccc2F)nc1-c1ccc(F)cc1F + CC(C)CCN1c2nc(Nc3cc(F)c(O)c(F)c3)ncc2N(C)C(=O)C1C [BID1870] (first compound 2 µM, partner dose 1 µM) | 71.9 | 81 | 79.5 |  | 68.3 | 76.3 |  | 75 | 70.8 | 78.9 | 72.8 |  | 104 | 72.8 | 91.1 | 78.7 | 81.8 | 105 | 70.4 | 
CCCCCCCCc1ccc(CCC(N)(CO)CO)cc1 [fingolimod] + Cn1cc(/C=C2\C(=O)Nc3cccnc32)c2ccccc21 [GW441756] (first compound 10 µM, partner dose 2 µM) | 1.01 | 81.7 | 7.53 | 5.37 | 28.7 | 3.39 | 60.7 | 12 | 4.68 | 6.34 |  | 0.107 | 9.82 | 49.9 | 61.7 | 12.8 | 12.4 | 57.6 | 49.8 | 
CCCCCCCCc1ccc(CCC(N)(CO)CO)cc1 [fingolimod] + O=C1NC(=O)/C(=C/c2ccc(-c3ccc(F)cc3O)o2)S1 [AS252424] (first compound 10 µM, partner dose 5 µM) | 0.613 | 12.6 | 5.02 | 0.463 | 8.22 | 1.59 | 0.731 | 4.92 | 3.39 | 1.84 |  | 0.0941 | 8.38 | 58.9 | 67.6 | 12.9 | 6.83 | 31.5 | 31.5 | 
Cc1ccc(NC(=O)c2cccc(N(C)C)c2)cc1NC(=O)c1ccc(O)cc1 + Oc1nc(-c2ccc(C(F)(F)F)cc2)nc2c1CSCC2 [XAV939] (first compound 10 µM, partner dose 10 µM) | 101 | 92 | 92.7 |  | 107 | 81.5 |  | 74.5 | 80.3 | 88.3 | 77.2 | 111 | 99.1 | 76.7 | 106 | 110 | 108 | 87.2 | 101 | 73.9
NC(=O)c1ccc(N(C(N)=O)c2c(F)cccc2F)nc1-c1ccc(F)cc1F + Oc1nc(-c2ccc(C(F)(F)F)cc2)nc2c1CSCC2 [XAV939] (first compound 2 µM, partner dose 10 µM) | 96.2 | 89.5 | 107 |  | 116 | 85.6 |  | 89.2 | 81 | 93.6 | 82.9 | 108 | 109 | 63.2 | 81.2 | 70.2 | 80.7 | 67.2 | 109 | 
CCCCCCCCc1ccc(CCC(N)(CO)CO)cc1 [fingolimod] + COc1ccc(-c2ccc3c(N4CCOCC4)nc(N4C[C@@H](C)O[C@@H](C)C4)nc3n2)cc1CO [KU0063794] (first compound 10 µM, partner dose 0.1 µM) | 0.123 | 36.1 | 5.08 | 0.221 | 6.3 | 2.16 | 1.08 | 3.57 | 3.59 | 2.43 |  | 0.106 | 11.1 | 46.5 | 39.7 | 15.5 | 7.53 | 10.1 | 16.3 | 
CC(C)(C)c1cnc(CSc2cnc(NC(=O)C3CCNCC3)s2)o1 + COc1cc2ncnc(Nc3ccc(Oc4ccccc4)cc3)c2cc1OC [SrcI1] (first compound 0.05 µM, partner dose 10 µM) | 57.7 | 75.4 | 79.7 |  | 46.6 | 83.3 |  | 75.7 | 23.2 | 77 | 52.6 | 74.8 | 84.5 | 52.6 | 71.9 | 55.6 | 55.4 | 62.1 | 58.9 | 54.1
